Laboratory results reported in the supplement of paper PMC4166925.
± gives the standard deviation of the averaged measurements. In all, about 33,000 sequences were measured (“E-score (dimensionless, -0.5 to 0.5)”: median about -0.049, highest 2% from about 0.37 on). Some of the results follow.

test system: T1, PmTbr T-box DNA-binding domain (GST fusion); assay: PBM E-score of 8-mer (E-score (dimensionless, -0.5 to 0.5)); Tbr is Tbrain of the sea star Patiria miniata (Pm) or the sea urchin Strongylocentrotus purpuratus (Sp); higher = stronger binding preference; most listed sequences are background and not binding sites; settings: the construct has about 5 more residues each side
T1 sequence: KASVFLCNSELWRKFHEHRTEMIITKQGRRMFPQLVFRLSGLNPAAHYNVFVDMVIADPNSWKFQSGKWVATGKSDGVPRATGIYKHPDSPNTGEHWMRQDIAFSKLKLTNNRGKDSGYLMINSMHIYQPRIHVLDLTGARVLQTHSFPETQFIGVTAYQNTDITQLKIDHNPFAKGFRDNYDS
Procedure: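 Universal protein-binding microarray (Agilent AMADID 016060, 60-bp probes with a 35-bp variable region) incubated with 200 nM GST-fused Patiria miniata Tbr T-box DNA-binding domain (residues 272-466) in PBS pH 7.5. Scored for every ungapped 8-mer (given with its reverse complement) by the Universal PBM Analysis Suite as E-score (modified Wilcoxon-Mann-Whitney enrichment, range -0.5 to 0.5; >0.45 counts as bound) and Z-score of median probe intensity. Two replicate arrays (datasets 1 and 2).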
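Further: 200 nM protein in PBS on universal arrays averaged over duplicate arrays.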

| Sequence | PBM E-score of 8-mer |
| --- | --- |
| AGGACGAT | -0.333 ± 0.015 |
| GGACGGTA | -0.228 ± 0.055 |
| CGCGCATA | 0.187 ± 0.044 |
| AGGAACCG | -0.123 ± 0.0091 |
| CACGCGAC | 0.285 ± 0.03 |
| ATCGGAAT | -0.0548 ± 0.0019 |
| GCCTGTCA | 0.184 ± 0.022 |
| CCTCTGGA | -0.0408 ± 0.055 |
| ACATAAGG | -0.166 ± 0.045 |
| AACTGACG | 0.102 ± 0.036 |
| CCGTTCGC | 0.323 ± 0.023 |
| ACACCCTA | 0.383 ± 0.018 |
| AAGCAACC | 0.0368 ± 0.044 |
| AGTTGAAG | -0.1993 ± 0.00098 |
| CCGCAGCC | -0.128 ± 0.032 |
| CACATAAC | 0.24 ± 0.019 |
| GGTTACTA | -0.224 ± 0.027 |
| AACACATC | 0.378 ± 0.013 |
| AGAGCGCT | -0.173 ± 0.074 |
| ATCCGACG | -0.0662 ± 0.0097 |
| CCTTTAAA | -0.112 ± 0.057 |
| GCGACGAA | 0.302 ± 0.0043 |
| ACGTAAAA | -0.181 ± 0.054 |
| AAGCAATG | -0.0127 ± 0.029 |
| TAAGGCTA | -0.13 ± 0.046 |

| Sequence | PBM E-score of 8-mer |
| --- | --- |
| AAGAGATT | -0.162 ± 0.015 |
| ACCTTACA | 0.241 ± 0.053 |
| CCGCACGC | 0.157 ± 0.024 |
| CCCTTGTC | -0.145 ± 0.077 |
| GGAGATAA | 0.0713 ± 0.019 |
| ATAGTGCC | -0.0965 ± 0.1 |
| ACATTGCT | 0.0753 ± 0.037 |
| CGGTCCTA | -0.1721 ± 0.0013 |
| TGGGGAAA | 0.00636 ± 0.087 |
| CTTGTTGA | 0.151 ± 0.013 |
| AATTCTAA | -0.128 ± 0.086 |
| AAACATCG | -0.0448 ± 0.038 |
| CAGCATAA | -0.246 ± 0.0042 |
| CATAAAAA | -0.0836 ± 0.037 |
| CCTAAATC | 0.0496 ± 0.0025 |
| GGATTCAA | -0.275 ± 0.062 |
| GACGAGGC | 0.0586 ± 0.12 |
| TAGCCACA | 0.11 ± 0.01 |
| TCTTCCAA | -0.144 ± 0.043 |
| AACACCTT | 0.4857 ± 0.0013 |
| AGTAGACT | -0.153 ± 0.062 |
| GACGTTCC | -0.193 ± 0.065 |
| GAATACTA | -0.143 ± 0.043 |
| ATAGGTTA | -0.261 ± 0.022 |
| AATCCGTG | 0.0745 ± 0.015 |

| Sequence | PBM E-score of 8-mer |
| --- | --- |
| CAGGAGAA | -0.192 ± 0.011 |
| CGTGCGGA | 0.0633 ± 0.03 |
| CTAGGTTC | -0.0841 ± 0.0095 |
| GGTACACA | -0.0988 ± 0.052 |
| CACAGATG | 0.0602 ± 0.03 |
| ACACCGCG | 0.337 ± 0.01 |
| CCTGTGAG | 0.227 ± 0.0028 |
| GAACCGGC | -0.12 ± 0.021 |
| CCTTATCA | 0.146 ± 0.036 |
| ACATTCTC | 0.171 ± 0.18 |
| ACCCAGAC | 0.0568 ± 0.091 |
| GCCCATCC | -0.066 ± 0.11 |
| AATCGGCT | -0.0721 ± 0.049 |
| CAAAGTTC | -0.123 ± 0.025 |
| CTTATTAA | -0.213 ± 0.074 |
| CAGGGCAG | -0.088 ± 0.018 |
| AGTATTCG | 0.00711 ± 0.043 |
| CATTGTGC | -0.11 ± 0.028 |
| CGGCGGCC | -0.252 ± 0.023 |
| TACTAACA | 0.196 ± 0.066 |
| CAGGAATC | -0.194 ± 0.1 |
| TATAATGA | -0.109 ± 0.01 |
| CGTATCCC | -0.144 ± 0.051 |
| AGAACCAG | -0.295 ± 0.055 |
| ATTAAGTG | 0.116 ± 0.049 |

| Sequence | PBM E-score of 8-mer |
| --- | --- |
| GGTTCAAA | -0.356 ± 0.034 |
| CGCACCAG | 0.2978 ± 0.0014 |
| GCGCCACC | 0.34 ± 0.012 |
| GCGCGGGA | 0.0785 ± 0.072 |
| ATTTCATC | -0.0838 ± 0.045 |
| GCGTTACA | 0.19 ± 0.045 |
| GCAGCAGA | -0.064 ± 0.012 |
| ATCTGTGG | -0.197 ± 0.037 |
| AGTACTTC | -0.25 ± 0.024 |
| GCCCTGTA | -0.204 ± 0.025 |
| GTTTTCTA | -0.204 ± 0.0059 |
| ATAATCCG | -0.0983 ± 0.017 |
| GCAAAAAA | 0.0494 ± 0.066 |
| ATTCCGGA | -0.201 ± 0.06 |
| GAAAAAGA | -0.163 ± 0.074 |
| CCTTGGCC | -0.216 ± 0.043 |
| CAACGCTC | -0.0448 ± 0.0033 |
| CAGAGGAG | -0.0488 ± 0.058 |
| GCGTTTCC | -0.0624 ± 0.0029 |
| AGTCGTAG | -0.0951 ± 0.072 |
| GCATATTA | -0.0131 ± 0.037 |
| AGCGTGAT | 0.207 ± 0.025 |
| GTACGTCA | 0.0376 ± 0.023 |
| CTACCTTA | -0.0827 ± 0.042 |
| TACAGGAA | -0.0757 ± 0.06 |

| Sequence | PBM E-score of 8-mer |
| --- | --- |
| GAGTTCTA | -0.132 ± 0.015 |
| ATGATTCG | 0.0158 ± 0.035 |
| CCTTTCAC | 0.3129 ± 0.00054 |
| ATTGGCCG | 0.00906 ± 0.098 |
| CAGACGCC | 0.0844 ± 0.053 |
| ATTTGCAG | 0.0369 ± 0.028 |
| GCGTTCCA | -0.201 ± 0.092 |
| AGGCGAAG | -0.0705 ± 0.037 |
| CCGCCCAA | -0.101 ± 0.091 |
| GGCACAAC | 0.126 ± 0.015 |
| CAAAGGTA | -0.133 ± 0.035 |
| TGTTCCAA | -0.0604 ± 0.099 |
| CCTCACAC | 0.475 ± 0.005 |
| ACTACTGC | 0.00279 ± 0.034 |
| GTTCCTAA | -0.187 ± 0.014 |
| GCATGAGA | -0.112 ± 0.041 |
| ACATTGAC | 0.166 ± 0.075 |
| CCAACTCA | -0.154 ± 0.12 |
| CGAGCTCC | -0.186 ± 0.011 |
| AGGGGTGA | 0.25 ± 0.018 |
| CAAACGGG | -0.107 ± 0.017 |
| CTCGCTGA | 0.0791 ± 0.063 |
| GAACCGTA | -0.134 ± 0.053 |
| CCGCAGCG | 0.0935 ± 0.039 |
| GCGTAAAC | 0.0544 ± 0.011 |

| Sequence | PBM E-score of 8-mer |
| --- | --- |
| ACTTTGGC | 0.139 ± 0.01 |
| ACTATCGA | -0.0125 ± 0.02 |
| ATAAAACG | -0.0364 ± 0.081 |
| GATATGGA | -0.283 ± 0.013 |
| AGGTTCGG | -0.0825 ± 0.035 |
| ATACATTA | -0.3 ± 0.0049 |
| AGGCGACA | 0.3974 ± 0.0038 |
| ATCCGTGG | -0.2691 ± 0.0023 |
| AATCCGAA | -0.213 ± 0.06 |
| GCATTTCA | 0.00163 ± 0.038 |
| CAGGGAAA | -0.153 ± 0.074 |
| AAGCTGGC | 0.166 ± 0.015 |
| AGACCGGC | -0.0622 ± 0.026 |
| AATGTCCC | -0.366 ± 0.026 |
| GTACCCAA | -0.192 ± 0.013 |
| CACATCTA | 0.229 ± 0.0027 |
| CAGAACCC | -0.214 ± 0.0027 |
| CTGCCCTC | -0.067 ± 0.048 |
| GACTAGTC | -0.132 ± 0.06 |
| AGTATACC | -0.145 ± 0.046 |
| GCGACCAC | 0.0576 ± 0.051 |
| AGAACCGA | 0.0116 ± 0.0067 |
| CAGGTGCG | 0.4533 ± 0.0028 |
| AGTCGTGC | 0.032 ± 0.0093 |
| AGGTCCCC | -0.314 ± 0.016 |

| Sequence | PBM E-score of 8-mer |
| --- | --- |
| ATGTTAGC | 0.0827 ± 0.022 |
| AGTTGCAC | 0.177 ± 0.0048 |
| ACTCAATC | 0.0926 ± 0.026 |
| TAGTTAGA | -0.127 ± 0.061 |
| ACGTTCGC | 0.191 ± 0.011 |
| CCATGAAC | -0.112 ± 0.039 |
| AGAACGGC | -0.0714 ± 0.038 |
| TATGGACA | -0.12 ± 0.033 |
| ACTGGCTC | -0.123 ± 0.0062 |
| AATCAACG | -0.118 ± 0.01 |
| CAAAAATA | -0.149 ± 0.035 |
| GGTTGTAC | 0.11 ± 0.012 |
| ATGAACGC | -0.0876 ± 0.052 |
| GTCGAAAC | 0.0209 ± 0.011 |
| GCCACGCC | 0.12 ± 0.026 |
| ATAGCGTC | 0.0818 ± 0.011 |
| CTACAGGC | -0.125 ± 0.0056 |
| CACTTCGA | 0.226 ± 0.011 |
| ACATGTTG | 0.185 ± 0.021 |
| CCAAATCC | 0.0777 ± 0.038 |
| GCGAGGGA | 0.181 ± 0.043 |
| ACATTTCC | -0.00451 ± 0.021 |
